Measured values as given in US20120034162A1, “Fullerene Assisted Cell Penetrating Peptides” (William March Rice University, priority 2006, published 2012).

Tests used:
HEK-293a cells [1] = assay: Cellular uptake by fluorescence microscopy; type: cell-based, human
[2] = tested on: neuroblastoma cell line (IMR 32); assay: Cellular uptake by fluorescence microscopy with DAPI staining; type: cell-based; conditions: IMR 32 cells, 24 hrs, 37° C.
Experimental: In order to show the generality of our results we have also studied the uptake of H-Baa-Lys(FITC)-NLS into neuroblastoma cell line (IMR 32). Neuroblastoma is the most common extracranial solid tumor in children and is responsible for 8-10% of pediatric tumors and 15% of pediatric cancer deaths. Neuroblastoma cells are known for their difficulty in transfection through the cell membrane. H-Baa-Lys(FITC)-NLS was incubated with IMR 32 cells for 24 hrs at 37° C. The cells were then washed with PBS buffer and treated with DAPI nuclei staining dye prior to observation with a fluorescence microscope.

[3] = type: in vitro ADME, bovine
From the text: Peptide stability. In order to test the stability of the fullerene peptide linkage, samples of Baa-Lys(FITC)-Lys8-OH and H-Baa-Lys(FITC)-NLS were exposed to bovine plasma for up to 3 days and analyzed by HPLC.

[4] = tested on: MCF-7 breast cancer cells; assay: Cellular proliferation, CCK-8 assay; type: cell-based; conditions: MCF-7, 48 h, concentration given with value
Experimental: Cellular proliferation studies. Cancer cells at 5×10^4 cells/well were plated in triplicate in standard flat-bottomed 96-well tissue culture plates in the presence of fullerene peptides in PBS buffer with a final volume of 100 μL. Unless otherwise indicated, cells were grown for 48 h at 37° C. in a CO2 incubator. Relative cell growth was determined by Cell Counting Kit-8 (CCK-8) cell proliferation assay as described by the manufacturer using an automated plate reader. Results were calculated in a blinded fashion and are the means of bi or triplicate determinations.
The effect of different Baa-peptide sequences on the cell viability of MCF-7 breast cancer cells was investigated to determine if the sequence has an effect rather than the presence of the C60. […] This is in agreement with the MTT cell viability test (see above). […] Clearly the sequence has a significant effect on the cell viability. However, it is worth noting that this may be due to either inherent differences in toxicity or differences in cellular uptake.

[5] = Aggregate size and morphology by cryo-TEM; type: physicochemical; conditions: 1.0 mg/mL in PBS buffer, pH 7
Experimental: To further examine the actual aggregate size and morphology, cryo-TEM experiments were performed for both peptides 25 and 26. The images were taken in the concentration of 1.0 mg/mL for both peptides. Samples for cryo-TEM studies were prepared by dipping a copper grid coated with amorphous carbon-holey film into the sample solution. The TEM images were mainly taken in the hole region of the TEM grid to minimize the artificial effect from the samples or ice. […] Both peptides forms spherical and ellipsoidal clusters, with an average aggregate sizes of 40-80 nm for 25 and 50-150 nm for 26, which are generally smaller than the diameters observed by DLS. Consistent with the DLS study, Baa-Lys(FITC)-Lys8-OH (25) are more uniform in size than Baa-Lys(FITC)-NLS (26). FIGS. 9a and 9b show the vitreous ice cryo-TEM micrograph of the large aggregates (9a) and small aggregates (9b) formed by Baa-Lys(FITC)-Lys8-OH in PBS buffer (1 mg/mL at pH=7). There are two dominant groups in size for 25; one type has the diameter of 40-80 nm with predominant population at size of ca. 50 nm, and the other population has a diameter less than 20 nm, which may correspondent to the size of fullerene peptides itself. […]

[6] = Peptide aggregation, particle size in solution by dynamic light scattering (DLS); type: physicochemical; conditions: PBS buffer
Experimental: Rink amide and Wang resin were obtained from Novabiochem, USA. Amino acids were purchased from Novabiochem and used as received. MALDI-TOF mass analysis was performed on a linear Protein-TOF Bruker instrument using sinipinic acid as the matrix. CD spectra were obtained on a Jasco J-700 dichrometer using 1 mm path-length quartz cells. Peptide solutions were 1.0 mg·mL^−1 solution in milliQ H2O or PBS buffer. In the case of peptides (21, 22 and 23), the pH was first adjusted to 10 to break up any aggregations and then adjusted by addition of 0.1 mM HCl until the desired pH was obtained. CD spectra were recorded in millidegrees and converted to residual molar ellipticity. TEM measurements were performed on a JEOL 2010 TEM at 200 kV. DLS Measurements were performed on the samples using an Brookhaven 90Plus submicron particle-size analyzer with HeNe laser (30 mW) that operates at […] wavelength.
With reference back to Table 1, in order to understand the intracellular transport of the FITC functionalized Baa-peptides, 25 and Baa-Lys(FITC)-NLS (26), their particle size in solution was determined by dynamic light scattering (DLS). Three series of solutions of 24, 25 and 26 in the range of 0.125-2.0 mg/mL was prepared by weighing method. PBS buffer prepared from HPLC grade water was used as solvent and was filtered through a […] cup filter (Millipore, Express).

HEK-293a cells [7] = assay: Cellular uptake by fluorescence microscopy; type: cell-based, human; conditions: for cellular uptake / localization by fluorescence: 40 μM, 24 hrs, 37° C.
Experimental: Cellular uptake. An immortalized human embryonic kidney epithelial cancer cell line was used in initial cellular uptake studies. HEK-293a cells were cultured in RMPI 1640 medium supplemented with 10% fetal bovine serum (FBS) in 5% CO2 and 37° C. humidified incubator. The medium was supplemented with penicillin (100 U·mL^−1), streptomycin (100 μg/mL), and glutamine (2 mM). For experiments and microscopy, cells were seeded at 1×10^4 cells per well on 6-well plates and grown for two days in RPMI supplemented with 10%. Cells were incubated with each peptide (40 μM) for 24 hrs at 37° C. After treatment, the cells were washed with RPMI supplemented with 10% FBS and phosphate buffered saline (PBS, 10 mM). Fluorescence was observed by a fluorescent microscope equipped with FITC and red filters.

Baa-Lys(FITC)-Pro-Lys-Lys-Lys-Arg-Lys-Val-OH [Peptide 26]
cellular uptake at 4° C. (HEK-293a cells [1]): no cellular uptake activity
cellular uptake / localization by fluorescence [2]: intense point fluorescence in cytoplasm
degradation of the sample in bovine plasma [3]: No degradation
inhibition of cell growth [4]: no inhibition of cell growth up to 40 μM
average aggregate size (large aggregates) [5]: 50-150 nm
aggregate size, minor smaller component [6]: ca. 40 nm
fraction of major aggregate component [6]: ca. 80%
third larger aggregate size at high concentration ([6]; 2.0 mg/mL (25), above 1.0 mg/mL (26)): ca. 800 nm
aggregate size, major (or single) component ([6]; 0.125-2.0 mg/mL): ca. 250 nm
cellular uptake / localization by fluorescence (HEK-293a cells [7]; […]): accumulate significantly in the nucleus
cellular uptake / localization by fluorescence (HEK-293a cells [7]; listed as H-Baa-Lys(FITC)-NLS): localized intense fluorescence in the center of the cells
Active Cellular Uptake (HEK-293a cells [7]; HEK-293a cells): Yes
